Consider 45 sequences from the supplement of paper PMC11417369.

± gives the standard deviation of the averaged measurements. The list shows a part of the results.

This test has as its system PfAP2-G AP2 domain (GST-tagged). Briefly: gcPBM binding intensity (ln(normalized median fluorescence intensity)); higher = stronger DNA binding. Summed up: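 GST-fused DNA-binding domains of P. falciparum, expressed in E. coli, were applied at about 25 μg on average for 1 h to an Agilent 4 × 180k array of primer-extended double-stranded 36-bp intergenic genomic probes and negative controls. Binding intensity is the highest Masliner-normalised natural-log median intensity across replicate spots of either probe orientation, measured with Alexa488 anti-GST antibody and a 488 nm scan.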
In the case of “AATCTTCTTAATTGTAGTACACAATTTATAAACAAA [XGTACX_site8706]”, the “gcPBM binding intensity (ln)” value is 11.6 ± 1. “AAAAATCATTTAAGAACACACAAATATTTCCATTAA [CACACA_site1488]”: the “gcPBM binding intensity (ln)” value worked out at 9.9 ± 0.014.

For “TACATAAATTTTAATACATGCAAATAAAATATATAA [TGCATGCA_site131]”, the “gcPBM binding intensity (ln)” value worked out at 9.84 ± 0.24.

For the sequence “ATATATATATATATATGTACATACAATTATATTCTC [XGTACX_site1133]”, the “gcPBM binding intensity (ln)” value was 11.2 ± 0.61. Turning to TTTTTTGTTACAACAGTGCAAAAAAACCTTAATGTT, the “gcPBM binding intensity (ln)” value is 10.1 ± 0.24. As for “ATAACGAACACTATTACACACATACATACATATGTA [CACACA_site5092]”, the “gcPBM binding intensity (ln)” value turned out to be 10.17 ± 0.099.

“AAAAAAAAAAAAAACACACACACATAGACCTCCAAT [CACACA_site3563]”: the “gcPBM binding intensity (ln)” value was 10.4 ± 0.26. For “TTTTCTGTGTTTACATGTACGAAAGATTAATATTAT [XGTACX_site5214]”, the “gcPBM binding intensity (ln)” value was 10.9 ± 0.58.

For “ATTTGATAGACACATGCACACATGCAATACTTTATT [CACACA_site5633]”, the “gcPBM binding intensity (ln)” value worked out at 10.1 ± 0.042. With “TTATCATATCATGGAAGTACAAATAAAATATATAAC [XGTACX_site1608]”, the “gcPBM binding intensity (ln)” value was determined as 11.3 ± 0.81. On to “TCTTTATTATTCGCCACACACATATAAATATAAATA [CACACA_site7441]”, for which the “gcPBM binding intensity (ln)” value stood at 10.3 ± 0.26.

With “ATAATTTTGTATAATTGTACATTATTTTAAATAAAT [XGTACX_site7952]”, the “gcPBM binding intensity (ln)” value worked out at 11 ± 0.5. In the case of “AAAACATAACATTGTTGTACTACTAATAAAATAAGT [XGTACX_site6149]”, the “gcPBM binding intensity (ln)” value was determined as 11.5 ± 0.88. As to “TTTTTTTTTTTTTTTAAACACACGGTGTGAAAATTA [CACACA_site3818]”, the “gcPBM binding intensity (ln)” value came out at 9.8 ± 0.5. In the case of “ATCAATCATGGTTTTACACACACATGCATGTGAAAA [CACACA_site1350]”, the “gcPBM binding intensity (ln)” value was 10.1 ± 0.21. The value for “TATATAAAAATATACACACACAAATGTATATATATA [CACACA_site220]” was 9.9 ± 0.26; that for “TACATACATACATACACACACATATAGATTTATATA [CACACA_site6999]” was 10.4 ± 0.15. Take “ATATATATATATATATCACACATTAATAATATATAT [CACACA_site5081]”: the “gcPBM binding intensity (ln)” value came to 9.96 ± 0.35. Turning to “ATAATTACATTCCATACACACATATATTTAAAGGTT [CACACA_site7403]”, the “gcPBM binding intensity (ln)” value is 10 ± 0.042. Take “TTCTTGTTCCTGAAAGTGCATATAACAAAAATAACA [GTGCAC_site9635]”: the “gcPBM binding intensity (ln)” value is 10.4 ± 0.42. As to “TTATATTTGATAGTTTGTACATATAATTATTATCAT [XGTACX_site5676]”, the “gcPBM binding intensity (ln)” value turned out to be 11 ± 0.57. Regarding “TATCTTCAAGTATGTACACACTATATATAATAAAAT [CACACA_site5368]”, the “gcPBM binding intensity (ln)” value came to 11.4 ± 0.93. “AATGATATATTTAAATGTACACATGAAATATAATAT [XGTACX_site2678]”: the “gcPBM binding intensity (ln)” value is 11.4 ± 0.74. On to “TGTAATATATGTATTGCACACCTATAACCATTATTT [CACACA_site8422]”, for which the “gcPBM binding intensity (ln)” value was 10 ± 0.14. Take “TATAAGTGCCGTTATACACACGTTATATAAATATTA [CACACA_site4401]”: the “gcPBM binding intensity (ln)” value came to 9.93 ± 0.057. For “ATAATTATATTTAGTGGTACTACTTTTGATAATTAG [XGTACX_site6562]”, the “gcPBM binding intensity (ln)” value came out at 11.5 ± 0.78. Under “AATTAAAAGTGAAGAGTGCATAGAATTTTTTACTTT [GTGCAC_site9973]” stands 9.955 ± 0.007; under “TTTAATTTTCAATGGCGTACATATAAAATATTATAT [XGTACX_site1672]”, 11.5 ± 1.

In the case of “AAATGTGAAAAAGAGTGTACCCGACTTGAAATTAAG [XGTACX_site8621]”, the “gcPBM binding intensity (ln)” value was determined as 11.5 ± 1.

With “AGTAGAATATCCCCTACACACCCAAGTAATTTACAA [CACACA_site6708]”, the “gcPBM binding intensity (ln)” value stood at 10.1 ± 0.12.

For the sequence “ACATATAGATAAATATGTACATATATATATATATAT [XGTACX_site1806]”, the “gcPBM binding intensity (ln)” value came out at 11.1 ± 0.64. Under “GATGAATAATATGTATGTACATATGCATTATGATGT [XGTACX_site7655]” stands 11 ± 0.56; under “ATATGCACTTTTTGCACACGTATGAATAACAAAATA [CACACA_site1810]”, 10.6 ± 0.43; under “TTTTGGATGAACAGTACATGCAAAAACAAACTTGTA [TGCATGCA_site16]”, 10.8 ± 0.37. Consider “TGCTTCTTTTAAAAACATGTTTGTATTCATTTTATA [CACACA_negctrl_site1627]”, for which the “gcPBM binding intensity (ln)” value turned out to be 10.04 ± 0.092.

With “ACAAAAAGTTACATACGTACGTAAAATTGTAATAAA [XGTACX_site2358]”, the “gcPBM binding intensity (ln)” value was 11.3 ± 0.67. On to “ATAATACCATTAATTTGTACATATATATTATATATA [XGTACX_site4345]”, for which the “gcPBM binding intensity (ln)” value is 10.9 ± 0.49. As to “ATTATATTATATATATGTACATATATATATCATAAT [XGTACX_site1]”, the “gcPBM binding intensity (ln)” value stood at 11.1 ± 0.66.

Take “TAATTATACTTATTTTGTACGCAATATTTAAAATAA [XGTACX_site8516]”: the “gcPBM binding intensity (ln)” value is 11.4 ± 0.93. With “TCTTCTTTAAAAGAGGTGCACTATATAATGTGATTA [GTGCAC_site9431]”, the “gcPBM binding intensity (ln)” value was found to be 10.4 ± 0.38.

For the sequence TTTTTAACGTATAAGGTGCACTGTATATGGTACTCA, the “gcPBM binding intensity (ln)” value was determined as 10.9 ± 0.69. As to “ATTTCTCTATCGTAATGTACAAAAAAAAGGAAAAAA [XGTACX_site1323]”, the “gcPBM binding intensity (ln)” value was found to be 10.9 ± 0.71. As for “ACATATAAATGATATGTACACACATTTATATATATA [CACACA_site9152]”, the “gcPBM binding intensity (ln)” value came out at 11.4 ± 0.72. Under “TACACAAAAATTTATACACACACATATATAATATAT [CACACA_site7931]” stands 10.1 ± 0.12. For the sequence “TGATTATATATAAATGTATGCATGTCTATTATGCTA [TGCATGCA_site543]”, the “gcPBM binding intensity (ln)” value was determined as 9.73 ± 0.12.
